The values below come from the supplement of paper PMC6135742.

Where a name gives a salt, the structure may show the parent alone. ± gives the standard deviation of the averaged measurements. Over roughly 2,600 compounds, “total cell number (DAPI+ nuclei) relative to DMSO vehicle control” has its median near -1.4; the lowest 2% begin near -23. Some of the results follow.

In this assay the test system is jimpy (Plp1 jimpy) mouse iPSC-derived oligodendrocyte progenitor cells. The assay is described as follows: total cell number (DAPI+ nuclei) relative to DMSO vehicle control (SDs above negative control mean); higher = more surviving cells. Conditions: 10 µM; 3 days.
As for `COC[C@H]1OC(=O)c2coc3c2[C@@]1(C)C1=C(C3=O)C2CCC(=O)[C@@]2(C)C[C@H]1OC(C)=O` (stereo partly specified) [Wortmannin from Penicillium funiculosum], the total cell number is -3.09.
`O=C(CCCN1CCC2(CC1)C(=O)NCN2c1ccccc1)c1ccc(F)cc1` [Spiperone hydrochloride] came in with a total cell number of -3.6.
The value for `CC(C)Oc1cccnc1N(C)C1CCN(Cc2ccccc2)CC1` was 7.57; that for `NCC1(CC(=O)O)CCCCC1` [Gabapentin] was 0.162; that for `O=c1cccc2n1C[C@@H]1CNC[C@H]2C1` [Cytisine] was -1.22.
Compound `COc1ccc2c(c1O)-c1cccc3c1[C@@H](C2)N(C)CC3` [R(-)-Apocodeine hydrochloride] had a total cell number of -2.28.
The compound `C[N+]1(C)[C@@H]2CC(OC(=O)[C@H](CO)c3ccccc3)C[C@H]1[C@@H]1O[C@@H]12` (single isomer, unassigned; (-)) [(-)-Scopolamine methyl nitrate] returned a total cell number of -1.19.
The value for `NC(Cc1cc(O)c(O)cc1O)C(=O)O` (racemic) [6-Hydroxy-DL-DOPA] was -2.36; that for `O=c1[nH]oc2c1CCNC2` [THIP hydrochloride] was -1.74.
As for `CC(C)(C)c1cc(C=C(C#N)C#N)cc(C(C)(C)C)c1O` [Tyrphostin 9], the total cell number was -11.8.
In turn, `Cc1cc(C(C#N)c2ccc(Cl)cc2)c(Cl)cc1NC(=O)c1cc(I)cc(I)c1O` (stereo unspecified) [Closantel] returned a total cell number of 0.325.
The value for `Cc1cc(C(C#N)c2ccc(Cl)cc2)c(Cl)cc1NC(=O)c1cc(I)cc(I)c1O` (stereo unspecified) [Closantel Sodium] was -1.35; that for `O=C(O)c1nn(Cc2ccc(Cl)cc2Cl)c2ccccc12` [Lonidamine] was -0.86 ± 1.1; that for `CCOC(=O)c1ncn2c1[C@@H]1CCCN1C(=O)c1cc(OC)ccc1-2` was -0.836.
As to `CCC1(C2=NCCN2)Cc2ccccc2O1` (stereo unspecified) [Efaroxan hydrochloride], the total cell number is -1.57.
Consider `CC[C@@H](CO)NC(=O)[C@@H]1C=C2c3cccc4[nH]cc(c34)C[C@H]2N(C)C1` [Methylergonovine maleate], for which the total cell number is -1.22.
`Cc1o[nH]c(=O)c1CC(N)C(=O)O` (racemic) [(±)-AMPA hydrobromide] came in with a total cell number of 1.67.
`CC(=O)[C@H]1CC[C@H]2[C@@H]3CC[C@H]4C[C@H](O)CC[C@]4(C)[C@H]3CC[C@]12C` [5alpha-Pregnan-3alpha-ol-20-one] displayed a total cell number of -0.448.
In turn, `CC(C)(C)c1cc(C=C(C#N)C#N)cc(Br)c1O` came in with a total cell number of -0.125.
For `CN1CC[C@@]2(C)c3cc(O)ccc3N(C)C12` (single isomer, unassigned; (-)) [(-)-Eseroline fumarate], the total cell number was -3.73.
For the compound `CC(C)[C@]12O[C@H]1[C@@H]1O[C@]13[C@]1(O[C@H]1C[C@H]1C4=C(CC[C@@]13C)C(=O)OC4)[C@@H]2O` [Triptolide (PG490)], the total cell number was -11.
`N[C@]1(C(=O)O)CC[C@H](C(=O)O)C1` (racemic) [trans-(±)-ACPD] came in with a total cell number of 0.987.
`CC(NC(C)(C)C)C(=O)c1cccc(Cl)c1` (stereo unspecified) [Bupropion hydrochloride] showed a total cell number of 0.698.
`CC(NC(C)(C)C)C(=O)c1cccc(Cl)c1` (stereo unspecified) [Amfebutamone HCl] yielded a total cell number of -0.515.
Consider `Oc1ccc2c3c1O[C@H]1c4[nH]c5ccccc5c4C[C@@]4(O)[C@@H](C2)N(CC2CC2)CC[C@]314` [Naltrindole hydrochloride], for which the total cell number was -5.19.
`Cn1c(CCCC(=O)O)nc2cc(N(CCCl)CCCl)ccc21` [Bendamustine HCl] displayed a total cell number of -4.33.
As to `Cn1c(CCCC(=O)O)nc2cc(N(CCCl)CCCl)ccc21` [Bendamustine hydrochloride], the total cell number was -1.55.
In the case of `O=C1CC[C@@]2(O)[C@H]3Cc4ccc(O)c5c4[C@@]2(CCN3CC2CC2)[C@H]1O5` [Naltrexone HCl], the total cell number is 1.24.
The compound `O=C1CC[C@@]2(O)[C@H]3Cc4ccc(O)c5c4[C@@]2(CCN3CC2CC2)[C@H]1O5` [Naltrexone hydrochloride] yielded a total cell number of 0.926.
With `N[C@@H]1C[C@H]1c1ccccc1` [Tranylcypromine (2-PCPA) HCl], the total cell number was -2.05.
In turn, `N[C@@H]1C[C@H]1c1ccccc1` [Tranylcypromine hydrochloride] yielded a total cell number of -2.97.
The compound `NCC(CC(=O)O)c1ccc(Cl)cc1` (racemic) [(±)-Baclofen] yielded a total cell number of 0.506.
In turn, `CO[C@H]1CC[C@@H](O[C@H]2C[C@H]([C@]3(C)CC[C@]4(C[C@H](O)[C@@H](C)[C@@H]([C@@H](C)/C=C(\C)C(=O)[C@H](C)C[C@H](C)C(=O)O)O4)O3)O[C@]3(O[C@@H]([C@H]4O[C@@](O)(CO)[C@H](C)C[C@@H]4C)C[C@@H]3C)[C@@H]2C)O[C@@H]1C` [Nanchangmycin] registered a total cell number of -27.5.
`[O-][n+]1ccccc1[S-].[O-][n+]1ccccc1[S-].[Zn+2]` [Zinc Pyrithione]: the total cell number is -16.1.
The value for `CN1[C@@H]2C[C@@H](OC(=O)[C@H](CO)c3ccccc3)C[C@H]1[C@@H]1O[C@@H]12` [Scopolamine HBr] was 0.365; that for `CN1[C@@H]2C[C@@H](OC(=O)[C@H](CO)c3ccccc3)C[C@H]1[C@@H]1O[C@@H]12` [(-)-Scopolamine hydrobromide] was -1.19.
The compound `COC1=C[C@@H]2[C@@H]3Cc4ccc(OC)c(O)c4[C@]2(CCN3C)CC1=O` [Sinomenine] came in with a total cell number of 0.57.
Consider `C/C(=C\c1csc(C)n1)[C@@H]1C[C@@H]2O[C@@H]2CCC[C@H](C)[C@H](O)[C@@H](C)C(=O)C(C)(C)[C@@H](O)CC(=O)O1` [Epothilone A], for which the total cell number is -7.62.
In turn, `CC(=O)[C@H]1CC[C@H]2[C@@H]3CC[C@H]4C[C@](C)(O)CC[C@]4(C)[C@H]3CC[C@]12C` [Ganaxolone] showed a total cell number of -1.31.
`CN(C)CCc1ccc(O)cc1` [Hordenine] came in with a total cell number of 1.24.
The value for `N#CC(C#N)=Cc1ccc(O)c(O)c1` [Tyrphostin 23] was -1.53.
On to `CN1CC[C@]2(CCN3CCc4c(oc5ccccc45)[C@@H]3C2)N(C)C1=O`, for which the total cell number is -0.37.
`Cc1cccc(Cc2c[nH]cn2)c1C` [Detomidine HCl]: the total cell number came to 4.09.
Consider `NC(=O)CI` [Iodoacetamide], for which the total cell number was -3.69.
In turn, `Cc1cccc(C)c1NC(=O)CN1CCCC1=O` [Nefiracetam] registered a total cell number of -0.796 ± 0.35.
The value for `COc1ccc2[nH]c3c(c2c1)CCNC3` [6-Methoxy-1,2,3,4-tetrahydro-9H-pyrido[3,4b] indole] was -0.987.
As to `CC[C@@H](C(=O)[C@@H](C)[C@@H](O)[C@H](C)[C@@H]1O[C@@H]([C@@H](CC)C(=O)O)CC[C@@H]1C)[C@H]1O[C@]2(C=C[C@@H](O)[C@]3(CC[C@@](C)([C@H]4CC[C@](O)(CC)[C@H](C)O4)O3)O2)[C@H](C)C[C@@H]1C` [Salinomycin], the total cell number was -8.31.
The compound `C=CCN1CC[C@]23c4c5ccc(O)c4O[C@H]2C(=O)CC[C@@]3(O)[C@H]1C5` [Naloxone HCl] yielded a total cell number of 1.03.
Take `C=CCN1CC[C@]23c4c5ccc(O)c4O[C@H]2C(=O)CC[C@@]3(O)[C@H]1C5` [Naloxone hydrochloride]: the total cell number was -0.148.
`C[C@@H]1CC[C@@]2(OC1)O[C@H]1C[C@H]3[C@@H]4CC=C5C[C@@H](O[C@@H]6O[C@H](CO)[C@@H](O[C@@H]7O[C@@H](C)[C@H](O)[C@@H](O)[C@H]7O)[C@H](O)[C@H]6O[C@@H]6O[C@@H](C)[C@H](O)[C@@H](O)[C@H]6O)CC[C@]5(C)[C@H]4CC[C@]3(C)[C@H]1[C@@H]2C` [Dioscin] had a total cell number of -15.1.
Consider `C[C@@H]1O[C@H](C[N+](C)(C)C)C[C@H]1O` (racemic) [(±)-Muscarine chloride], for which the total cell number was 0.257.
For `CP(=O)(O)C1=CCNCC1`, the total cell number was -2.01.
With `Cn1cc(C2=C(c3cn(C4CCN(Cc5ccccn5)CC4)c4ccccc34)C(=O)NC2=O)c2ccccc21`, the total cell number is -8.32.
The value for `NC(=O)c1cc(N2CC2)c([N+](=O)[O-])cc1[N+](=O)[O-]` was -3.47; that for `CC(=O)O[C@H]1C[C@@H]2CC[C@@H]3[C@H](CC[C@@]4(C)[C@H]3C[C@H]([N+]3(C)CCCCC3)[C@@H]4OC(C)=O)[C@@]2(C)C[C@@H]1[N+]1(C)CCCCC1` [Pancuronium bromide] was -0.512.
Turning to `CC(=O)O[C@H]1C[C@@H]2CC[C@@H]3[C@H](CC[C@@]4(C)[C@H]3C[C@H]([N+]3(C)CCCCC3)[C@@H]4OC(C)=O)[C@@]2(C)C[C@@H]1[N+]1(C)CCCCC1` [Pancuronium dibromide], the total cell number is -1.01.
`O=C1C=CC[C@@H]2[C@H]3CCCN4CCC[C@@H](CN12)[C@@H]34` [Sophocarpine] had a total cell number of -0.691.
The value for `COC(=O)[C@@H](N)CCCNC(=N)N[N+](=O)[O-]` [NG-Nitro-L-arginine methyl ester hydrochloride] was -0.269; that for `O=C(NCC1CCOCC1)c1cnc(Nc2ccc(Cl)cc2Cl)nc1C(F)(F)F` was -0.705.
`O=c1ccc2cc(O[C@@H]3O[C@H](CO)[C@@H](O)[C@H](O)[C@H]3O)c(O)cc2o1` [Esculin] displayed a total cell number of 0.804.
The value for `CC(C)NC(C)Cc1ccc(I)cc1` (stereo unspecified) [Iofetamine hydrochloride] was 3.11.
Consider `COC(=O)N1CCN(C(=O)Cc2ccc(Cl)c(Cl)c2)C(CN2CCCC2)C1` (stereo unspecified), for which the total cell number is -1.17.
The value for `CN1CCCCC1Cn1cc(C(=O)c2cc([N+](=O)[O-])ccc2I)c2ccccc21` (stereo unspecified) was -10.8; that for `CCCN(CCC)C1Cc2cc(OC)c(OC)cc2C1` was 1.68.
The value for `N=C(NCCC[C@H](N)C(=O)O)N[N+](=O)[O-]` [NG-Nitro-L-arginine] was -1.18.
In the case of `c1ccc2c(c1)Nc1ccccc1S2` [Phenothiazine], the total cell number is 0.518.
